Test results: PMC4336329 (PLoS ONE, 2015)
The whole screen tested about 310,000 compounds, of which about 2,200 (0.71%) showed an effect of 50% or more. Effects have a minus sign here. The list shows a part of the results.

target: human ether-à-go-go-related gene (hERG) potassium channel (human, UniProt Q12809); assay: primary screen, population patch clamp on CHO cells stably expressing hERG
Sequence (Q12809 whole entry, looked up): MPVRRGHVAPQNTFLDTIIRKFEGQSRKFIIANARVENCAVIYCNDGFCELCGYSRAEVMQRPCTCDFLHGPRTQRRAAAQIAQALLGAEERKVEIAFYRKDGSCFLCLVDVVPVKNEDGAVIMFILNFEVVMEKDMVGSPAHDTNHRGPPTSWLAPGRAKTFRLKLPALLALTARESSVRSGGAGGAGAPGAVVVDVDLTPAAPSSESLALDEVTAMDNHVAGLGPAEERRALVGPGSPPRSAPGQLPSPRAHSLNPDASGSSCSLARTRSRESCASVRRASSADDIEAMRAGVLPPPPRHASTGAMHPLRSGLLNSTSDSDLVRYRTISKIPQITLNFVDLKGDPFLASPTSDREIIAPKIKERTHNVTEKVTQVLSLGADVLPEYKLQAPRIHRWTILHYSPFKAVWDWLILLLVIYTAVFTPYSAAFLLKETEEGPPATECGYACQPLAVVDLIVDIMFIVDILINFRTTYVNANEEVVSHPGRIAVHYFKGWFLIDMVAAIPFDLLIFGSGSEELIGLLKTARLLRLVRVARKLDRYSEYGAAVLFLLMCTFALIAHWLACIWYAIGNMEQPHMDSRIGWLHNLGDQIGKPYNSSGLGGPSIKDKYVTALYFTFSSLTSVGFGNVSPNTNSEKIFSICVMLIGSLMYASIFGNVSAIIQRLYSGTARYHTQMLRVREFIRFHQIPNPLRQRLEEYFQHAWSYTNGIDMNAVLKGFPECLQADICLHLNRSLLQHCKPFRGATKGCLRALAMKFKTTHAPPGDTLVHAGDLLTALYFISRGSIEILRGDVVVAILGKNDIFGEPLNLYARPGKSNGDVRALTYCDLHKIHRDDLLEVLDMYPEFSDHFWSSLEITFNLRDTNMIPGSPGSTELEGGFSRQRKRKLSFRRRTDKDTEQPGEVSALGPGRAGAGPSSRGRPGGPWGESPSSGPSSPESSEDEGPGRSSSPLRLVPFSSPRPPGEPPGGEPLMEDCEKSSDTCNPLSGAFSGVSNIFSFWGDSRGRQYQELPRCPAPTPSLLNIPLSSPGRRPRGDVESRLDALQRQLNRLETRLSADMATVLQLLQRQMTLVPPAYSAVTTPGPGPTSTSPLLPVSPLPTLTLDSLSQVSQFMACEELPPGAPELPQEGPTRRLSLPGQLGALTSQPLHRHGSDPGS

Row | SMILES | hERG current change (%, negative = inhibition) at 1uM [%]
1 | COc1ccc(OCCCC(=O)NNC(=O)CCN2CCN(c3ccccc3)CC2)cc1 | 11.1
2 | O=C(NCc1ccc(Cl)cc1)C(=O)NCC(c1cccnc1)N1CCN(c2ccc(F)cc2)CC1 (centres unmarked) | -4.09
3 | Cc1cc(N)ccc1-n1c(C)ccc1C | 7.5
4 | COc1ccc(OC)c(C(=O)CN2CCN(S(=O)(=O)c3ccc(Br)cc3)CC2)c1 | 5.24
5 | O=C(NCc1ccccc1Cl)c1ccc2c(c1)OCO2 | 8.05
6 | CC(=O)OCCc1[nH]c2ccccc2c1C | 11.5
7 | CCOC(=O)c1c(C)[nH]c(C(=O)Cn2c(=O)oc3ccccc32)c1C | 6.13
8 | COc1ccc(CC(=O)Nc2ccc(NC(=O)c3ccccc3F)cc2)cc1 | 19.9
9 | COc1ccc(NC(=O)CN(C)C(=O)c2ccc(NS(=O)(=O)c3ccc(F)cc3)cc2)cc1 | 19.7
10 | Cc1nnc(SCC(=O)NC(=O)NC(C)C)s1 | 9.55
11 | CCOc1cc(/C=N/n2c(C)nc3ccccc3c2=O)ccc1O | 18.6
12 | CCN(CC)CCCNc1nc(-c2ccccc2)nc2ccccc12.Cl | -15.9
13 | O=C(O)c1[nH]c2ccc(Cl)cc2c1CCN1C(=O)c2ccccc2C1=O | 1.54
14 | Cc1nc(NC(=O)COC(=O)C(C)NC(=O)c2ccccc2)c(Cl)cc1Cl (centres unmarked) | 8.59
15 | CCC(C)N(CCNC(=O)c1ccc2c(c1)NC(=O)c1ccccc1S2)C1CCCCC1 (centres unmarked) | 2.55
16 | O=C(CCN1C(=O)S/C(=C\c2ccccc2)C1=O)NCCCn1ccnc1 | 11.2
17 | COc1cc(/C=C2\SC(=S)N(CC(=O)Nc3ccccn3)C2=O)cc(OC)c1OC | 16
18 | CCn1nnc2cc(C(=O)N(CCOC)CC(=O)Nc3cccc(C)c3C)ccc21 | 6.81
19 | NS(=O)(=O)c1ccc(N/N=C/c2ccc(O)cc2O)c([N+](=O)[O-])c1 | 12.3
20 | Cc1cc(NS(=O)(=O)c2ccc(NC(=O)/C=C/c3ccc(C)o3)cc2)nc(C)n1 | 14.7
21 | Cc1ccc(NC(=O)c2cncc(Br)c2)cc1S(=O)(=O)N(C)C | 16.1
22 | CCOC(=O)c1sc(NC(=O)c2sc(C)nc2C)nc1C | 6.2
23 | O=P(Nc1ccccc1)(Oc1ccccc1)Oc1ccccc1 | 7.83

Row | SMILES | hERG current change (%, negative = inhibition) at 1uM [%]
24 | CS(=O)(=O)c1nc(-c2ccccc2)cc(C(F)(F)F)n1 | 15.6
25 | CCn1c(C)cc2c(c1=O)C(c1ccccc1)C(C(=O)OC)=C(N)O2 (centres unmarked) | 23.4
26 | COC(=O)Cc1ccc2c3ccccc3n(C)c2c1 | 13
27 | CN1CCN(C(=S)NC(=O)c2ccc(C(C)(C)C)cc2)CC1 | 3.98
28 | O=C(C1=C[C@H](c2ccc(Br)cc2)C[C@H](OCCCCO)O1)N1CCN(Cc2ccccc2)CC1 | -23.1
29 | Cc1cccc(NC(=O)CCS(=O)(=O)c2cc3c(cc2Cl)NC(=O)CO3)c1 | 4.7
30 | COc1ccc2[nH]c3c(c2c1)CCN1C(=O)N([C@@H](C)C(=O)NC2CC2)C(=O)[C@]31C | 2.63
31 | COc1ccc2c(c1OC)C(=O)OC2C1c2cc3c(cc2CCN1C)OCO3 (centres unmarked) | 7.16
32 | COc1ccc(C2c3c(ccc4ccccc34)Oc3ncn4nc(-c5ccco5)nc4c32)cc1OC (centres unmarked) | -10.5
33 | Cc1c(Cl)c([N+](=O)[O-])nn1CCCC(=O)O | 9.61
34 | CCOC(=O)c1csc(NC(=O)c2ccc(C#N)cc2)n1 | 9.89
35 | O=C(NC(c1ccc(Cl)cc1)c1cc(Cl)c2cccnc2c1O)c1cccnc1 (centres unmarked) | -1.36
36 | C=CCN(CC=C)C(=O)c1cccc(OC2CCN(CC(C)(C)C)CC2)c1 | 10.9
37 | CCOC(=O)c1c(-c2ccccc2)oc2ccc(OC(=O)N(C)C)cc12 | -6.94
38 | CCO[C@H]1OC(C(=O)N2CCN(C)CC2)=C[C@@H](c2coc3ccccc3c2=O)[C@@H]1CCCO | 16.6
39 | CC(C)(C)Nc1nc(NC(C)(C)C)nc(-n2ccnc2)n1 | 7.48
40 | O=[N+]([O-])c1ccccc1NCCNS(=O)(=O)c1ccc(Cl)cc1 | 13.1
41 | Oc1cccc(NC(=S)Nc2ccccc2)c1 | -0.841
42 | CC(C)n1c(=S)[nH]c2scc(-c3cccs3)c2c1=O | 17.5
43 | Cc1csc2nc3ccccc3c(=O)n12 | 13.7
44 | COc1cc(/C=C2\SC(=O)NC2=O)ccc1Oc1cnccn1 | 9.73
45 | COc1cccc2cc(NC(=O)C3CCCCC3)c(=O)oc12 | 9.19
46 | COc1cccc(Oc2nc(-c3ccncc3)nc3ccccc23)c1 | 13.8

Row | SMILES | hERG current change (%, negative = inhibition) at 1uM [%]
47 | Cc1ccc(N2C(=O)[C@@H]3[C@H](C2=O)C2CCCN2[C@@H]3C(=O)c2ccccc2)cc1 (some centres unmarked) | 14.9
48 | CCOC(=O)C1=C(C)NC(=O)C(C(N)=O)C1c1ccccc1 (centres unmarked) | 15.8
49 | O=C(Cn1c(=O)c2sccc2n(Cc2ccc([N+](=O)[O-])cc2)c1=O)NCCc1ccccc1 | -17
50 | CN1C(=O)N(C)C2(CC1(C)C)CC(C)(C)N(C)C(=O)N2C | 11.8
51 | CC(=O)c1cccc(NC(=O)CCN2C(=O)C3CC=CCC3C2=O)c1 (centres unmarked) | 8.9
52 | CCCOc1ccc(C(F)(F)F)cc1NC(=O)CN1C(=O)C(=O)N(CC)C1=O | 8.1
53 | O=C(ON=C1CCN(S(=O)(=O)c2ccccc2)CC1)c1ccc(F)cc1 | 4.64
54 | CN(C)S(=O)(=O)c1cccc(NC(=O)c2n[nH]c(=O)c3ccccc23)c1 | 5.12
55 | COc1ccc(-c2cc(C(=O)O)[nH]n2)cc1OC | 5.18
56 | C/C(=N\NC(=O)c1ccco1)c1cccc2ccccc12 | 13.6
57 | CN1Cc2c(N3CCOCC3)nc3sc(C#N)c(N)c3c2CC1(C)C | 9.45
58 | CCC(=O)Nc1ccc(C(=O)CSc2nnc(-c3ccc(O)cc3)n2CC2CCCO2)cc1 (centres unmarked) | 20.3
59 | O=C(Nc1ccc(S(=O)(=O)Nc2ccccn2)cc1)c1cccc(Br)c1 | 17.2
60 | O=c1cc[nH]c(=O)[nH]1 | -6.03
61 | O=C(NCCc1ccccc1)C1CCCN1S(=O)(=O)c1ccc(Cl)cc1 (centres unmarked) | 7
62 | C=CCC1CCCCC12NC(=O)N(c1ccccc1)N2 (centres unmarked) | 5.16
63 | CS(=O)(=O)c1ccc(Cl)c(NC(=O)Cc2ccsc2)c1 | 14.9
64 | COc1ccc(N2C(N)=NC(N)=NC23CCCC3)cc1.Cl | 6.04
65 | CC(C)N1C(=O)C(Cc2nc3ccccc3c(=O)n2-c2ccccc2)c2ccccc21 (centres unmarked) | 14.2
66 | COc1ccc(CNC(=O)C23CC4CC(CC(Br)(C4)C2)C3)cc1 | 18
67 | CN(CC(=O)Nc1ccc(F)c(F)c1F)C(=O)C1CCCC1 | 8.79
68 | Cc1ccc(C)c(S(=O)(=O)N2CCCC2CNC(=O)C(=O)NC2CCCC2)c1 (centres unmarked) | -1.03
69 | Cn1c(=O)c2sccc2n2c(CCCC(=O)NCCc3ccccc3)nnc12 | 17.5

Row | SMILES | hERG current change (%, negative = inhibition) at 1uM [%]
70 | O=C(O)CCNC(=O)/C(=C\c1ccco1)NC(=O)c1ccco1 | 13.1
71 | CCN(C(=O)CN1C(=O)/C(=C/c2ccccc2)SC1=S)C1CCS(=O)(=O)C1 (centres unmarked) | 12.5
72 | CC(=O)c1cccc(NC(=O)Nc2ccc(C(=O)N3CCOCC3)cc2)c1 | -10.6
73 | Cc1ccc(C)c(NC(=O)c2cc(-c3cc(C)cc(C)c3O)n[nH]2)c1 | 9.28
74 | COC(=O)C(O)(CC(=O)Nc1ccc(OC)cc1)C(F)(F)F (centres unmarked) | -3.68
75 | CN[C@@H](C)[C@@H](O)c1ccccc1.Cl | 8.91
76 | O=C(NC(=S)Nc1sc2c(c1C(=O)O)CCCC2)c1ccccc1 | 9.8
77 | CCOC(=O)N1CCC(N(CCN(C)C)C(=S)Nc2ccccc2Cl)CC1 | 9.36
78 | Cn1c(SCC(=O)NCCc2ccccc2)nnc1C1CCCCC1 | 22.7
79 | Cl.c1ccc2c(c1)oc1c(NCCCn3ccnc3)ncnc12 | -20.3
80 | COc1cc(-c2noc(C)c2C(=O)NCCO)cc(OC)c1OC | 10.6
81 | Cc1cc(Cl)ccc1C(=O)C1CCCN(C(=O)CCn2cnnn2)C1 (centres unmarked) | 9.91
82 | N#CC1(NC(=O)CN2C(=O)c3ccc([N+](=O)[O-])cc3C2=O)CCCCC1 | 6.76
83 | Cc1c(C(=O)NCCc2ccc(S(N)(=O)=O)cc2)cccc1[N+](=O)[O-] | 15.7
84 | CC(=O)Nc1cccc(-n2nnc(SCC(=O)N(C)c3ccccc3)n2)c1 | 6.17
85 | CC(NC(=O)c1ccnn1C)C1CCCO1 (centres unmarked) | 15.8
86 | O=C(c1ccc(C(F)(F)F)cc1)C1CCCN(C(=O)c2cnccn2)C1 (centres unmarked) | -7.62
87 | COc1ccc(C(=O)NC(C)(C)C)cc1S(=O)(=O)N1CCCC1 | 7.08
88 | CN(C)S(=O)(=O)c1cccc(NC(=O)CCSc2ccc(Cl)cc2)c1 | 8.11
89 | O=c1c2ccccc2[nH]c(=S)n1Cc1ccccc1Cl | 15.3
